From PubChem BioAssay AID1030 (National Center for Advancing Translational Sciences (NCATS), 2008)
Values joined by “and” are separate entries in the source; they are usually repeats but may differ in a detail not shown here. Equal entries are not always repeated. The campaign covered roughly 220,000 compounds. About 16,000 (7.3%) were called active. Inconclusive results, whose numbers are uncertain, are shown with a selection of clear calls. The call rests on the fitted dose curve; in most records, active means well fitted inhibition curve with a large enough effect (not every such curve was filed as active); inconclusive means small, poorly fitted or top-dose-only effect, or another doubt; inactive means no such curve, though single readings can be large or run the other way. No potency is given beside an inconclusive call; the fits are too rough. The source holds several records for some structures; these can differ, active in one and inactive in another.

Each compound was assayed against Aldehyde dehydrogenase 1A1 (Homo sapiens) (UniProt P00352) (assay: qHTS Assay for Inhibitors of Aldehyde Dehydrogenase 1 (ALDH1A1)). Conditions: Purified ALDH1A1, NADH fluorescence, propionaldehyde substrate; series mostly up to 75.3 µM.
Potency means the concentration at half of the fitted maximal effect; tags describe the fitted curve by direction and shape.

Chain of UniProt P00352 (P00352 whole entry, looked up): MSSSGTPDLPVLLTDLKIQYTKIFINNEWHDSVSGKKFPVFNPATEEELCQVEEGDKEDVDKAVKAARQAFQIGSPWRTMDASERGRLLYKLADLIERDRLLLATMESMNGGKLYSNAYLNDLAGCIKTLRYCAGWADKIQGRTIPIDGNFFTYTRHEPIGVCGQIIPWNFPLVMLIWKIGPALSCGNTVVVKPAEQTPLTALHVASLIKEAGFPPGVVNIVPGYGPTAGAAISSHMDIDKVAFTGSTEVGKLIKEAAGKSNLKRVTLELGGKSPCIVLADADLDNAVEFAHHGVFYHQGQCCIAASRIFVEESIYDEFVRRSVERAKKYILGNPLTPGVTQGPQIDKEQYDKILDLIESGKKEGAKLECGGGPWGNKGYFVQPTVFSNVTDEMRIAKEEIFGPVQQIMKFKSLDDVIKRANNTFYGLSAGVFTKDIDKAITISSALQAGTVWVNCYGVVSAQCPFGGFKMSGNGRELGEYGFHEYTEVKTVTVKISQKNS

| SMILES | Potency |
| --- | --- |
| O=c1c(-c2cc(F)cc(F)c2)nc2cnc(Oc3ccccc3)nc2n1C1CC1 | inconclusive [inhibitor, single point] |
| COC(=O)c1ccccc1NC(=S)NC(=O)C1CCCCC1 | inconclusive [inhibitor, single point] |
| COc1ccccc1C1OC(c2cccc([N+](=O)[O-])c2)=NN1C(C)=O (configuration not stated) | inconclusive [inhibitor, single point] |
| CCOc1ccccc1NC(=O)NC1(C(=O)N2CCOCC2)CCCCC1 | inactive |
| N#CCOC(=O)c1c2c(nc3ccccc13)CCC2 | inconclusive [inhibitor, single point] |
| O=C(O)C(c1ccccc1)C(c1ccccc1)c1ccccc1 (configuration not stated) | inactive |
| Cc1ccc(C(C)C)cc1S(=O)(=O)NCc1cccnc1 | active: 20 µM |
| CN1CCN(c2cc3c(cc2F)c(=O)c(C(=O)O)cn3CCF)CC1 | inconclusive [inhibitor, single point] |
| OCC1OC(/C=C\c2ccccc2)C=CC1Oc1ccc2c(c1)OCO2 (configuration not stated) | inconclusive [inhibitor, partial curve] |
| O=C(NCc1ccco1)c1cccc(S(=O)(=O)N2CCCCC2)c1 | inconclusive [inhibitor, single point] |
| COc1ccc(C2=NN(C(=O)CSc3nc4ncc(Cl)cc4[nH]3)C(c3ccco3)C2)cc1 (configuration not stated) | inconclusive [inhibitor, single point] |
| O=C(CC(=O)c1ccccc1)Nc1cc(C(F)(F)F)ccc1Cl | inconclusive [inhibitor, full curve, poor fit] |
| O=C(COc1ccccc1)NNC(=S)NC(=O)c1ccccc1 | active: 22.4 µM |
| O=C(CCc1ccccc1)NC(NC(=S)Nc1cccc(Cl)c1)C(Cl)(Cl)Cl (configuration not stated) | inconclusive [inhibitor, single point] |
| Cc1ccc(S(=O)(=O)Nc2ccc(SC(F)F)cc2)c(C)c1 | inactive |
| C=CCN(C(=O)Nc1ccccc1)C1CC(=O)N(c2ccc(OC)cc2)C1=O (configuration not stated) | inconclusive [inhibitor, single point] |
| CCCCC(CCCC)=N/N=C/c1c(O)n(CC)c2cc(C3=NNC(=O)CC3)ccc12 | inconclusive [inhibitor, single point] |
| CCOC(=O)CSc1ccc(-c2nc3cc(C)c(C)cc3[nH]2)cn1 | inconclusive [inhibitor, partial curve] |
| CCC(=O)N(Cc1cc(=O)[nH]c2ccccc12)C1CCCCC1 | inconclusive [inhibitor, single point] |
| N#C/C(=N\Nc1ccc(S(=O)(=O)N2CCOCC2)cc1)C(N)=S | active: 3.16 µM |
| Cc1[nH]nc2c1C(CCc1ccccc1)C(C#N)=C(N)O2 (configuration not stated) | inconclusive [inhibitor, single point] |
| CN(C)CCN(Cc1ccccc1)c1ccccn1 | inactive |
| O=C(NCCCN1CCOCC1)c1ccc2c(=O)n(CCc3ccccc3)c(=O)[nH]c2c1 | inconclusive [inhibitor, single point] |
| CC1CCc2nc3ccc(S(=O)(=O)N4CCC(C(=O)NC5CCCC5)CC4)cc3c(C(=O)O)c2C1 (configuration not stated) | active: 39.8 µM |

| SMILES | Potency |
| --- | --- |
| Cc1cc(-c2cccnc2)c(C#N)c(SCc2cccc(F)c2)n1 | inconclusive [inhibitor, partial curve] |
| CCN(CC)c1ccc(C=C(c2nnnn2-c2ccc(C)cc2)c2nnnn2-c2ccc(C)cc2)cc1 | inconclusive [inhibitor, full curve] |
| CC1(C(=O)NCCCN2CCOCC2)Oc2cccnc2NC1=O (configuration not stated) | inactive |
| CCOC(=O)C1=C(C)NC(=O)NC1c1ccc(-c2ccccc2F)o1 (configuration not stated) | active: 20 µM |
| CCOC(=O)CSc1ccc2nnc(CCNS(=O)(=O)c3ccc(C)cc3)n2n1 | inconclusive [inhibitor, single point] |
| CCOCCCn1cc(C(=O)c2cc(Br)ccc2O)cc(C#N)c1=O | inconclusive [inhibitor, partial curve] |
| Cc1nc(NC(=O)c2ccccc2)sc1-c1csc(Nc2ccc(F)cc2)n1 | inconclusive [inhibitor, single point] |
| CC(C)NC(=O)c1onc(CSc2cccc3ccccc23)c1C(=O)O | inconclusive [inhibitor, single point] |
| O=C(O)Cn1c(O)c(C=Nc2ccccc2)sc1=S | inactive and active: 28.2 µM |
| CCC(=O)NC(=S)Nc1ccc(NC(=S)NC(=O)c2ccccc2)cc1 | active: 25.1 µM |
| Cc1onc(-c2ccccc2)c1C(=O)NC(=S)NNC(=O)c1ccccc1O | inactive |
| CCc1ccc(-c2cc(C(=O)NCCCn3ccnc3)c3ccccc3n2)s1 | inconclusive [inhibitor, partial curve] |
| CN(C)c1ccc(-c2cncnc2NCc2cccs2)cc1 | inconclusive [inhibitor, single point] |
| CC(=O)Nc1cccc(C(=O)Nc2nc(C)cs2)c1 | inactive |
| O=C(NCC1CCCO1)c1cc(S(=O)(=O)N2CCCC2)c(Cl)cc1Cl (configuration not stated) | inconclusive [inhibitor, single point] |
| CC1CCCN(c2nc3ccccc3nc2C(C#N)S(=O)(=O)c2cccs2)C1 (configuration not stated) | inconclusive [inhibitor, single point] |
| O=C(N/N=C/C=C/c1ccco1)c1cccs1 | active: 2 µM |
| O=C(c1cccc(F)c1)N1CCC2(CCCN(Cc3nccs3)C2)CC1 | inactive |
| CCOc1ccc(NC(=O)c2ccc(-n3cccn3)nc2)cc1 | inactive |
| CC1CN(CCOc2ccccc2[N+](=O)[O-])CC(C)O1 (configuration not stated) | inconclusive [inhibitor, single point] |
| Cc1nnsc1C(=O)N1CCC(C(=O)c2ccccc2)CC1 | inactive |
| Cc1ccc(C(=O)CSc2nnc(Cn3nnc4ccccc43)n2C)cc1 | inconclusive [inhibitor, single point] |
| CC(=O)Nc1ccc(Nc2c([N+](=O)[O-])c(=O)n(-c3ccccc3)c3ccccc23)cc1 | active: 10 µM |
| O=C(CSc1ccc(-c2ccco2)nn1)NC1CCCCC1 | active: 3.98 µM |

| SMILES | Potency |
| --- | --- |
| CCC(CC)C1C(C#N)=C(N)SC(N)=C1C#N | inconclusive [inhibitor, single point] |
| CCC(C)(C)n1nnnc1CN1CCC(c2nc3ccc(C)cc3[nH]2)CC1 | active: 10 µM |
| CC(=O)n1cc([C@@H]2C=C(C(=O)O)O[C@H](OCc3ccc(CO)cc3)C2)c2ccccc21 | inconclusive [inhibitor, single point] |
| Cc1ccc(S(=O)(=O)N(C)CC(=O)OCC(=O)NC(=O)Nc2ccc3c(c2)OCCO3)cc1 | inconclusive [inhibitor, single point] |
| COc1ccccc1/C=C/C=N/NC(=O)c1cc(-c2ccco2)[nH]n1 | inconclusive [inhibitor, single point] |
| Cc1cc(C)n(-c2ccc(C(=O)OC(C)C)cc2)n1 | inconclusive [inhibitor, single point] |
| Oc1ccc(C2C(c3ccccc3)=NN=C(c3ccc(Cl)cc3)N2O)c(O)c1 (configuration not stated) | active: 11.2 µM |
| CCN(CC)CCn1c(=S)[nH]c2ccc(Cl)cc2c1=O | inconclusive [inhibitor, partial curve] |
| COc1cc2c(cc1OC)-c1cc3cc(OC)c(OC)cc3c(=O)n1CC2 | inconclusive [inhibitor, partial curve] |
| CCNC(=O)CCS(=O)(=O)c1ccc2ccccc2c1 | inconclusive [inhibitor, partial curve] |
| CC(C)(C)c1ccc(S(=O)(=O)NCCc2ccncc2)cc1 | inconclusive [inhibitor, partial curve] |
| CCN=c1scc(-c2ccco2)n1/N=C/c1ccc(OC)c(O)c1 | inconclusive [inhibitor, single point] |
| Cc1ccc(S(=O)(=O)NCCSc2nnc(N)s2)cc1 | inactive |
| CCOc1ccccc1CNC(=O)c1cn(C)c(=O)c2c1c1ccccc1n2C | inactive |
| COC(=O)c1cc(C(=O)CSc2nc(C)cc(C)n2)ccc1O | inactive |
| COCCn1c(=NC(=O)c2ccc3c(c2)OCCO3)sc2cc(S(N)(=O)=O)ccc21 | inconclusive [inhibitor, partial curve] |
| CC(=O)N(C)c1ccc(NC(=O)Nc2ccc(C)cc2)cc1 | inconclusive [inhibitor, partial curve] |
| NC(=S)Nc1cccc2cc3ccccc3cc12 | inconclusive [inhibitor, partial curve] |
| CCOc1ccc(NC(=O)Cn2nnc3c(cnn3-c3ccc(F)cc3)c2=O)cc1 | active: 7.94 µM |
| COC(=O)c1[nH]c2cccc(OC)c2c1NC(=O)CN1CCC(C(N)=O)(N2CCCCC2)CC1 | inconclusive [inhibitor, single point] |
| CC(NC(=O)CSc1nnc(-c2cccnc2)n1N)c1ccccc1 (configuration not stated) | inconclusive [inhibitor, single point] |
| Cc1cnc(C(=O)Nc2ccc(C(=O)N3CCCCC3)cc2)cn1 | inactive |
| C[C@@H](C(=O)NCCc1c[nH]c2ccccc12)[C@H]1C[C@]1(C)[C@H](NC(=O)OCc1ccccc1)c1ccccc1 | active: 10 µM |
| O=C(c1ccccc1)N1CCCCC(Sc2nnnn2-c2ccccc2)C1=O (configuration not stated) | active: 3.55 µM |
